Data on 67 compounds can be found in PubChem BioAssay AID488969 (Vanderbilt High Throughput Screening Facility, 2010).

Structures are written as SMILES. Over roughly 110,000 compounds, “z-score” has its median near -0.1; the highest 2% begin near 2. The list shows a part of the results. The source made the active and inactive calls.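 How the source made its calls: active means z-score in the third read window above 3 or below -3; inactive means the rest.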

The experiment has as its target Metabotropic glutamate receptor 8 (Rattus norvegicus) (UniProt P70579). As to the kind of experiment: mGluR8 Gi/Go-coupled signaling modulation – cell-based, rat, thallium flux, HTS, primary screen (AID 488969). As to conditions: HEK293 rat mGluR8, GIRK (G protein-gated inwardly rectifying potassium channel) thallium flux, FluoZin2; at 10 µM; stronger effect = higher value; submaximal glutamate (EC20) added with thallium.
Chain of UniProt P70579 (P70579 whole entry, looked up): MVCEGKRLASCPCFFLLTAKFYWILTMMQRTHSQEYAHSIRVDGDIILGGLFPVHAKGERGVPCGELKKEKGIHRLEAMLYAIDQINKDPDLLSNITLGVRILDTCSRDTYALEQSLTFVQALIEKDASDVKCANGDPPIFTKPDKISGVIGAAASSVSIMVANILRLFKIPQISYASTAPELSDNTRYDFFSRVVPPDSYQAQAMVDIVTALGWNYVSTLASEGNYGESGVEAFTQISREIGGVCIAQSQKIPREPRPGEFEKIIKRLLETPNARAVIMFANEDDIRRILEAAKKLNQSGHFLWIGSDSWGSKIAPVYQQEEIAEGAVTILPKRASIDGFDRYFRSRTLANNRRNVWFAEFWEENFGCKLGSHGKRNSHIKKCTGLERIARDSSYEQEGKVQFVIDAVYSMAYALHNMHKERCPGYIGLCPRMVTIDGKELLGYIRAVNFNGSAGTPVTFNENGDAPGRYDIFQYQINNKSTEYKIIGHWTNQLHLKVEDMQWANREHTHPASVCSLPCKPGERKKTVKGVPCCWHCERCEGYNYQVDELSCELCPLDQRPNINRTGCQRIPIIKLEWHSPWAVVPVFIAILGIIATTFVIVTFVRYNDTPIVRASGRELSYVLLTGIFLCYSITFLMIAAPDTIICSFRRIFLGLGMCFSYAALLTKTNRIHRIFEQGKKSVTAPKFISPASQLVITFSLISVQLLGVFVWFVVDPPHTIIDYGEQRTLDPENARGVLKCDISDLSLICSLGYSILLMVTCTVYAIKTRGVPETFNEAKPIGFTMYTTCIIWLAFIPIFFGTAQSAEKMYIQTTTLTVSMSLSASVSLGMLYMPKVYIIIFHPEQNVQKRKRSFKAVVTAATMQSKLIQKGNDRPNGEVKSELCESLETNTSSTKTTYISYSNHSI
Take `CCC(=O)N1CCN(c2cc(N3CCN(C)CC3)c(F)cc2[N+](=O)[O-])CC1`: the z-score came out at 0.0648.
The value for `COc1ccc(NC(=O)CC2SC(=NCC3CCCO3)NC2=O)cc1` (configuration not stated) was 0.33.
The value for `CN1C/C(=C/c2cccnc2)C(=O)/C(=C/c2cccnc2)C1` was 0.0351; that for `Cc1cc(C)c2c(N)c(C(=O)NCC3CCCCC3)sc2n1` was -0.117; that for `CC(C)CCNC(=O)c1ccc(C2SCC(=O)N2Cc2ccco2)cc1` (configuration not stated) was -0.513.
The value for `O=C(/C(C=Nc1ccc(Br)cc1)=C(/O)c1ccco1)C(F)(F)F` was -0.324; that for `O=C(CCCn1c(SCC(=O)c2ccc(O)c(O)c2)nc2ccccc2c1=O)NCC1CCCO1` (configuration not stated) was -0.557; that for `Cc1nn(Cc2ccccc2Cl)c(C)c1NC(=O)CCCn1nc([N+](=O)[O-])c(Cl)c1C` was -0.339.
On to `CCCOc1cccc(C(=O)Nc2cccnc2)c1`, for which the z-score worked out at 0.379.
To `CC(c1ccco1)N(C(=O)Nc1ccccc1)C1CCCCC1` (configuration not stated) belongs -0.242.
To `Cc1cccc(OCC(=O)NNC(=O)CSc2ncc(C#N)c(N)n2)c1` belongs 0.132; to `O=C(Cn1cc([N+](=O)[O-])cn1)Nc1nc2ccccc2s1`, 0.0332; to `O=C(CSC1CC(=O)N(CCc2ccccc2)C1=O)Nc1ccc(Cl)cc1` (configuration not stated), -0.0174.
The value for `COc1ccc(CCn2c(Br)nc3c2c(=O)[nH]c(=O)n3C)cc1` was -0.0329.
As to `Cc1onc(-c2ccccc2)c1C(=O)NCC1CCN(C(=O)c2c(-c3ccccc3)noc2C)CC1`, the z-score was -0.402.
To `Cc1ccc(OCC(=O)Nc2ccc(S(=O)(=O)Nc3onc(C)c3C)cc2)cc1` belongs 0.0571; to `Cc1cccc(NC(=O)CSc2nnc(-c3n[nH]c4ccccc34)o2)c1`, 0.53.
To `O=C(Cn1cc(C(=S)N2CCOCC2)c2ccccc21)N1CCOCC1` belongs -0.257; to `Cc1ccc(-c2n[nH]c(=S)n2Cc2ccccc2)cc1`, -0.277; to `COc1ccc(C(=O)Nc2ccccc2C(=O)NC(C)C)cc1OC`, -0.708.
To `CCOc1ccccc1-n1c(CNc2ccc(F)cc2)nnc1SCC(=O)NCc1ccco1` belongs -0.53; to `Cc1ccc(N2CN=c3s/c(=C\c4ccccn4)c(=O)n3C2)cc1`, 0.203; to `CN(c1ccccc1C(=O)Nc1ccc2c(c1)OCCO2)S(C)(=O)=O`, 0.0123.
`O=C(CCNC(=O)c1ccccc1Cl)Nc1ccc(Br)c(C(F)(F)F)c1` registered a z-score of -0.164.
The value for `COc1ccc2c(C)c(Cl)c(=O)oc2c1` was -0.379.
The value for `CCOc1nc(NCc2ccco2)nc(Nc2ccccc2F)n1` was -0.124.
In the case of `COc1ccc(NC(=O)Nc2ccc(OC)cc2)cc1`, the z-score was -0.25.
The value for `O=C(Nc1nc(N2C(=O)c3ccccc3C2=O)n(-c2ccccc2)n1)c1ccc(F)cc1` was -0.214; that for `COc1ccc(S(=O)(=O)N2CCC(C(=O)c3ccc4c(c3)OCCO4)CC2)cc1` was -0.313.
To `CS(=O)(=O)NCCSc1nnnn1-c1ccccc1` belongs 0.484.
To `O=C(NC(=S)Nc1cccc2cccnc12)c1ccccc1` belongs 0.356; to `Oc1ccccc1-c1nc(N2CCCC2)c2ccccc2n1`, 0.251.
Turning to `Cc1nonc1NC(=O)OCCN1CCOC1=O`, the z-score is -0.041.
In turn, `O=C1CN(C(=O)COC(=O)c2ccccc2NC(=O)c2ccco2)c2ccccc2N1` came in with a z-score of -1.64.
The value for `Cc1cc(C)c(S(=O)(=O)N2CCN(c3ccc([N+](=O)[O-])c(NCc4ccco4)c3)CC2)c(C)c1` was -0.0158; that for `Nc1ncnc2nc(Sc3ccc(Cl)cc3)[nH]c12` was 0.0177.
The value for `Cc1c(C(=O)Nc2ccc(F)c(F)c2)oc2ccc(S(=O)(=O)N3CCCCC3)cc12` was -0.14; that for `Cc1cc(C)c2c(c1)-c1cc(C)nn1C(c1ccc3c(c1)OCO3)N2` (configuration not stated) was -0.0277.
The value for `CCOC(=O)C(C)N1N=C(/C=C/c2ccc(C)cc2)CCC1=O` (configuration not stated) was -0.289; that for `CCCCn1c(=O)n(CC(=O)NCc2ccc(C)cc2)c(=O)c2c1nc(CO)n2CCC` was -0.123.
Consider `NC(=O)c1ccc(NC(=O)CSC2=Nc3ccccc3C3CC=NN23)cc1` (configuration not stated), for which the z-score was determined as 0.461.
The value for `CC(C)(Oc1ccc(Cl)cc1)C(=O)N/N=C/c1cn[nH]c1-c1ccccc1` was -0.22; that for `Cn1c(SCC(=O)NCc2ccc3c(c2)OCO3)nnc1-c1c[nH]c2ccccc12` was -0.821; that for `CCC(Sc1nc(C)cc(C)n1)C(=O)O` (configuration not stated) was 0.498.
The compound `CC1(C)NC(=O)N(CCOCCOc2ccccc2)C1=O` displayed a z-score of -0.067.
The value for `CC(C)[C@H](Nc1ccc(S(=O)(=O)N2CCOCC2)cc1[N+](=O)[O-])C(=O)OCC(=O)N(C(C)C)C(C)C` was -0.351; that for `CCOC(=O)c1c(C)[nH]c(C)c1C(=O)Cn1nnc(-c2ccccc2C)n1` was -2.06.
To `CCOC(=O)N1CCN(C(=O)CN(c2ccc(OCC)cc2)S(C)(=O)=O)CC1` belongs -0.173; to `CC(C)(C)n1nnnc1C(c1ccncc1)N(Cc1ccccc1)Cc1ccco1` (configuration not stated), -0.36; to `Cc1ccccc1-c1nc2ccccc2c(=O)n1/N=C/c1ccccc1[N+](=O)[O-]`, -0.194.
The value for `CC(=C/c1ccco1)/C=N/NC(=O)CSc1nnc(SCc2ccc(C)cc2)s1` was -0.136; that for `CC1CN(C(=O)c2cc(F)c(F)cc2Cl)CC(C)O1` (configuration not stated) was 0.616.
`COCCN1C=C(C(=O)OC)C(c2cc3c(cc2Br)OCO3)C(C(=O)OC)=C1` registered a z-score of 0.0358.
The value for `CC(=O)NS(=O)(=O)c1ccc(N=NN2CCOCC2)cc1` was -0.373; that for `C=CCC1(O)C(=O)N2C(=C1C(=O)OCC)c1ccc3ccccc3c1CC2(C)C` (configuration not stated) was -0.732; that for `O=C(C1=NN(c2ccccc2)C2C(=O)N(c3cccc(Cl)c3)C(=O)C12)c1ccccc1` (configuration not stated) was -0.175.
The value for `O=S(=O)(c1ccc(Br)s1)N1CCN(c2ccccn2)CC1` was -0.2.
`Clc1cccc2c1Sc1ccccc1CC2N1CCNCC1` (configuration not stated) registered a z-score of 0.386.
To `CCOC(=O)c1c(C)[nH]c(C(=O)COC(=O)CNC(=O)c2ccc(Cl)cc2)c1C` belongs active: 5.97.
The value for `CC1(C)C(=O)C2(CCCCC2)C(=O)OC1c1cccs1` (configuration not stated) was -0.169; that for `Cc1ccc(N2CCCn3c2cc(C)c(C#N)c3=O)cc1Cl` was -0.215; that for `CC(C)CCN1C(=O)c2ccc(C(=O)OCn3nnc4ccccc4c3=O)cc2C1=O` was 0.284.
The value for `CCOc1ccc(C(=O)NCCCN2CCCC2=O)cc1` was 0.207; that for `CCOc1ccc(C2OC34CCCCC3C(C#N)(C#N)C2(C#N)C(=N)O4)cc1OC` (configuration not stated) was -0.6.
Regarding `CCCCn1ccnc1C(=O)c1cccc(S(=O)(=O)N2CC(C)CC(C)C2)c1` (configuration not stated), the z-score is -0.376.
As for `C=CCNC(=O)c1ccc(-c2nc(-c3ccc(Cl)cc3Cl)cs2)cc1`, the z-score is -0.111.
To `COc1cc2c(cc1OC)CN(C(=S)Nc1ccc(C)cc1C)CC2` belongs -0.228.
